Measurements taken from PubChem BioAssay AID720709 (National Center for Advancing Translational Sciences (NCATS), 2013).
In all, about 360,000 compounds went through this assay and about 520 (0.14%) were called active. Inconclusive results, whose numbers are uncertain, are shown with a selection of clear calls. Calls follow the shape of the dose curve; as a rule, active = well fitted inhibition curve with a large enough effect; inconclusive = small, poorly fitted or top-dose-only effect; inactive = no such curve, though single readings can be large or run the other way. No potency is given beside an inconclusive call; the fits are too rough.

These molecules were tested against Rap guanine nucleotide exchange factor 3 (Homo sapiens) (UniProt O95398) (assay: qHTS for Antagonist of cAMP-regulated guanine nucleotide exchange factor 3 (EPAC1): primary screen). Settings: EPAC1 GEF assay, Rap1b-BODIPY-GDP exchange fluorescence; activity change, negative = inhibition: at 115 µM (top of the series).
Also: nearly all actives have a fitted effect of over 50% in size.
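For activity change, negative = inhibition in this document: plate controls were vehicle for no effect and positive control for full effect.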
Potency is read from the fitted curve at half-maximal effect; tags tell the direction and shape of the fitted curve.

UniProt O95398, sequence (O95398 whole entry, looked up): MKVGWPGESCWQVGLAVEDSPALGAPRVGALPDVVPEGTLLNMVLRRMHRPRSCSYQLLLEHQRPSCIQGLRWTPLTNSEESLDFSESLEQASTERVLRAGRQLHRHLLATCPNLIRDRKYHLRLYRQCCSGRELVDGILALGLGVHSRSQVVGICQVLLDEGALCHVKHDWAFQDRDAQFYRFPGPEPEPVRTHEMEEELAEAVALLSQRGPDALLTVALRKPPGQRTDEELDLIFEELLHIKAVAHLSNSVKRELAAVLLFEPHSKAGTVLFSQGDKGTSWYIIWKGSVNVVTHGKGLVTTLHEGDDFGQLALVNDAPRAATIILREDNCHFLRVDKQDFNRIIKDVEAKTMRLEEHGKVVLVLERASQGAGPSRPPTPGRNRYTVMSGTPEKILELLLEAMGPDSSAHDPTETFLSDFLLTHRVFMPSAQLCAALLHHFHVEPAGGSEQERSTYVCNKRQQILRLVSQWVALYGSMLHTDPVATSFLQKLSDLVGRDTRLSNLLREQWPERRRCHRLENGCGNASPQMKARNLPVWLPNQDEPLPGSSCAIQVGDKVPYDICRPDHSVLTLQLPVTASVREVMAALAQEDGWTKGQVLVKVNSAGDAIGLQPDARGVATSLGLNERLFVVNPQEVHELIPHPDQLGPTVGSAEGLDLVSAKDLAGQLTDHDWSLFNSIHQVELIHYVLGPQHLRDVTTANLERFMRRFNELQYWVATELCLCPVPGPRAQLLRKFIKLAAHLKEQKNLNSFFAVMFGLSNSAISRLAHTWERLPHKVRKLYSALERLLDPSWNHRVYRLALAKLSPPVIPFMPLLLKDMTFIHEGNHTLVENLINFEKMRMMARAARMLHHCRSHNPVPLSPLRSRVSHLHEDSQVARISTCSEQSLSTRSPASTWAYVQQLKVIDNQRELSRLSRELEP

Row | SMILES | activity change, negative = inhibition | Potency
1 | CC(C)(C)S(=O)(=O)/C(C#N)=N/Nc1ccc(S(C)(=O)=O)cc1 | inactive: -16% | 
2 | O=C(N/N=C/c1ccc(O)c(O)c1O)/C(=C/c1ccc([N+](=O)[O-])cc1)NC(=O)c1ccccc1 |  | inconclusive [inhibitor, partial curve]
3 | Cc1ccc(C(=O)NNc2ncnc3ccccc23)cc1 |  | inconclusive [inhibitor, partial curve, poor fit]
4 | Cn1nc(-c2ccccn2)nc2c(=O)n(C)c(=O)nc1-2 |  | inconclusive [inhibitor, full curve, poor fit]
5 | CC(=O)c1sc(NC(=O)CS(=O)(=O)c2ccc(F)cc2)nc1C | inactive: -6.32% | 
6 | Cc1nc2c(C(=O)NCCC(C)C)c[nH]n2c(=O)c1Cc1ccccc1F |  | inconclusive [inhibitor, full curve, poor fit]
7 | CCOc1cc(N2CCOCC2)c(OCC)cc1NC(C)C(=O)N1CCN(CC)CC1 (stereo not given) |  | inconclusive [inhibitor, partial curve]
8 | COc1ccc(S(=O)(=O)N2CCCCCC2)cc1C(=O)N(C)Cc1ccccc1F | inactive: -6.55% | 
9 | Cc1sc(NC(=O)C2C3C=CC(C3)C2C(=O)O)c(C(N)=O)c1-c1ccc(C(C)C)cc1 (stereo not given) |  | inconclusive [inhibitor, single point]
10 | O=C(CCl)N(c1ccc(Cl)cc1)c1c[nH]c2ccccc12 |  | inconclusive [inhibitor, partial curve]
11 | COc1ccccc1N1CCN(C(c2cc3cc(C)ccc3[nH]c2=O)c2nnnn2C2CCCC2)CC1 (stereo not given) | inactive: 0% | 
12 | O=[N+]([O-])c1ccc(S(=O)(=O)Nc2nc(-c3ccccc3)cs2)cc1 |  | inconclusive [inhibitor, partial curve]
13 | O=C1N(c2ccccc2C(F)(F)F)O[C@]1(c1ccccc1)C1CCCCC1 |  | inconclusive [inhibitor, partial curve]
14 | CCOC(=O)N1CCN(C(=O)CSc2nnc(Cc3ccccc3)o2)CC1 |  | inconclusive [inhibitor, single point]
15 | CCOc1ccc(NC(=O)CN(C)C(=O)c2cc3c(s2)CCC3)cc1OCC |  | inconclusive [inhibitor, partial curve]
16 | COc1ccc(C=O)c(OC)c1 |  | inconclusive [inhibitor, partial curve]
17 | Cc1cc(Cl)ccc1OCC(=O)NNC(=O)C1CCN(c2ncnc3sc(C)c(C)c23)CC1 | inactive: -13.4% | 
18 | O=[N+]([O-])c1ccc(S(=O)(=O)N2CCN=C2SCc2cccnc2)cc1 |  | inconclusive [inhibitor, partial curve, poor fit]
19 | CC(OC(=O)C1=Cc2ccccc2OC1)C(=O)NCC1CCCO1 (stereo not given) |  | inconclusive [inhibitor, partial curve]
20 | O=C(O)C(c1ccccc1)N1C(=O)c2cccc3cccc(c23)C1=O (stereo not given) |  | inconclusive [inhibitor, partial curve]
21 | CCC(=O)Nc1nc(C)c(-c2csc(Nc3cccc(O)c3)n2)s1 |  | inconclusive [inhibitor, full curve]
22 | O=C(O)CCCN1C(=O)/C(=C/c2cn(-c3ccccc3)nc2-c2cccs2)SC1=S | inactive: 20.4% | 

Row | SMILES | activity change, negative = inhibition | Potency
23 | COc1cc(/C=C(/C#N)C(=O)c2c(C)[nH]c3ccccc23)ccc1OCC#N |  | inconclusive [inhibitor, full curve, poor fit]
24 | CC1CCc2nn(CC(=O)NCCCN3CCCC3=O)cc2C1 (stereo not given) |  | inconclusive [inhibitor, partial curve]
25 | C#CCOCCOCCOCCNc1nc(N2CCN(C(=O)CCCCCCCCCCNC(=O)[C@H]([C@@H](C)CC)n3cc(CCCCN=C(N)N)nn3)CC2)nc(N2CCN(C(=O)CCCCCCCCCCNC(=O)[C@@H]([C@H](C)O)n3cc(C)nn3)CC2)n1 |  | inconclusive [inhibitor, partial curve]
26 | CC(C)C[C@H]1CNC(=S)N1CC1CCCN1C[C@H](CC(C)C)N1C[C@H](Cc2ccc(O)cc2)N(CC2CCCCC2)C1=S (stereo not given in full) |  | inconclusive [inhibitor, partial curve]
27 | O=C(COC(=O)c1ccccc1)Nc1ncc([N+](=O)[O-])s1 |  | inconclusive [inhibitor, full curve]
28 | O=C(CCN1CCCCCC1)c1ccccc1 | inactive: -4.42% | 
29 | COc1ccccc1CNC(=O)CCC(=O)N1CC(C)Sc2ccccc21 (stereo not given) |  | inconclusive [inhibitor, single point]
30 | Oc1ccc(-c2nc3ccccc3s2)c(O)c1 | inactive: 5.27% | 
31 | CCOc1ccc(N(CC(=O)Nc2cc(OC)cc(OC)c2)S(=O)(=O)c2c(C)[nH]c(=O)[nH]c2=O)cc1 |  | inconclusive [inhibitor, full curve]
32 | Cc1ccc(-c2nc(CS(=O)CC(=O)NC(C)CCc3ccccc3)c(C)o2)cc1 (stereo not given) |  | inconclusive [inhibitor, single point]
33 | CC12CCC(C(=O)N(CC(=O)O)C1=O)C2(C)C (stereo not given) |  | inconclusive [inhibitor, full curve]
34 | COc1cccc(/C=N/Nc2nc3ccccc3[nH]2)c1O | inactive: 11% | 
35 | CN(CC(=O)Nc1ccccc1Br)C(=O)c1ccncc1 | inactive: -2.65% | 
36 | CCOc1ccc(N2C(=O)Nc3ccccc3C2(O)C(=O)NCc2ccc(C)cc2)cc1 (stereo not given) |  | inconclusive [inhibitor, single point]
37 | CCC(=O)Nc1ccc(S(=O)(=O)N2CCc3ccccc3C2)cc1 |  | inconclusive [inhibitor, partial curve]
38 | COC(=O)[C@@]12C[C@@H](CC(=O)NCCCCc3ccccc3)C(=O)N(Cc3ccccc3)C1=CCC(C)(C)C2 | inactive: 0.731% | 
39 | O=C1CC(c2ccc(O)c(O)c2)Oc2c1ccc(O)c2O (stereo not given) |  | inconclusive [inhibitor, partial curve]
40 | O=C(COC(=O)c1ccccc1C(=O)c1ccccc1)NCCc1ccccc1 | inactive: 2.63% | 
41 | Cc1c(C(=O)O)cccc1-c1ccc(/C=C2\SC(=O)NC2=O)o1 |  | inconclusive [inhibitor, full curve]
42 | COc1ccc(N(C(=O)c2ccncc2)S(=O)(=O)c2ccc(Cl)cc2)cc1 |  | inconclusive [inhibitor, partial curve]
43 | CC(=O)Oc1ccc(Cn2c(C)c(C(=O)NCc3ccc4c(c3)OCCO4)sc2=O)cc1 | inactive: -13.6% | 
44 | Oc1ccc(/C=N/N2CCOCC2)c(O)c1O | inactive: 9.66% | 

Row | SMILES | activity change, negative = inhibition | Potency
45 | CC(C)CC(=O)NS(=O)(=O)c1ccc(NS(C)(=O)=O)cc1 |  | inconclusive [inhibitor, full curve, poor fit]
46 | O=C(c1ccc(CSCc2ccccc2F)o1)N1CCN(c2ccc(N3CCOCC3)nn2)CC1 |  | inconclusive [inhibitor, single point]
47 | COC(=O)[C@]12CCCCC=C1N(Cc1ccccc1)C(=O)[C@H](CC(=O)NCc1ccc(C)o1)C2 | inactive: -8.27% | 
48 | CN(C)CCN(C)C1CN(Cc2ccc(F)cc2)S(=O)(=O)C1 (stereo not given) | inactive: 3.22% | 
49 | CC(=O)Nc1ccc(O)cc1[N+](=O)[O-] |  | inconclusive [inhibitor, partial curve, poor fit]
50 | O=C1/C(=C/c2cccc(Cl)c2)SC(=S)N1CCC(=O)N1CCCCC1CCO (stereo not given) |  | inconclusive [inhibitor, single point]
51 | COc1ccc(OC)c(C2C(C(=O)Nc3ccccc3OC)=C(C)Nc3nc(CCCO)nn32)c1 (stereo not given) |  | inconclusive [inhibitor, partial curve]
52 | COc1cc(C(=O)NCC(=O)N/N=C(\C)Cc2ccccc2)cc(OC)c1OC |  | inconclusive [inhibitor, single point]
53 | Cc1ccc(NC(=O)CS(=O)Cc2nc(-c3ccc(C)cc3)oc2C)cc1 (stereo not given) |  | inconclusive [inhibitor, partial curve]
54 | O=C1C2CCCN2C(c2ccc(F)cc2)N1c1cccc(Cl)c1 (stereo not given) |  | inconclusive [inhibitor, full curve, poor fit]
55 | COc1cccc(/C=C/C(=O)OCC(=O)Nc2nnc(-c3ccccc3)o2)c1OC |  | inconclusive [inhibitor, partial curve, poor fit]
56 | COc1ccc(NC2=Nc3cccc4cccc2c34)cc1OC | inactive: -0.558% | 
57 | COc1cc(C(=O)NCc2ccncc2)cc(Br)c1OCc1ccccc1 |  | inconclusive [inhibitor, full curve, poor fit]
58 | CCOc1ccc(C(=O)Nc2nnc(C3=COCCO3)o2)cc1 |  | inconclusive [inhibitor, single point]
59 | Cc1csc(N=Cc2ccc([N+](=O)[O-])o2)n1 |  | inconclusive [inhibitor, partial curve]
60 | O=C1CC(c2ccco2)CC(O)=C1C=NCC1NCCc2ccccc21 (stereo not given) |  | inconclusive [inhibitor, single point]
61 | CC(=O)Nc1ccc(NC(=O)CNC(=O)COc2ccccc2)cc1 |  | inconclusive [inhibitor, partial curve]
62 | O=C(N/N=C/c1c(O)ccc2ccccc12)c1[nH]ncc1Br |  | inconclusive [inhibitor, partial curve, poor fit]
63 | CC(NC(=O)c1ccccc1F)c1nnc(SCC(=O)NC2CCCC2)n1C (stereo not given) |  | inconclusive [inhibitor, full curve, poor fit]
64 | COc1ccc(/C=C2/SC(=S)N(CCC(=O)O)C2=O)cc1 | inactive: -9.85% | 
65 | C=C1C(=O)[C@]23C[C@H]1CCC2[C@]1(C)CCC[C@@](C)(C(=O)O)C1C[C@@H]3O (stereo not given in full) |  | inconclusive [inhibitor, partial curve]
